Reference: PubChem BioAssay AID1508642 (National Center for Advancing Translational Sciences (NCATS), 2021)
The campaign covered roughly 43,000 compounds. About 200 (0.47%) were called active. About 12% were inconclusive and are not listed. The call rests on the fitted dose curve; in most records, active means well fitted cell-killing curve with a large enough effect; inconclusive means small, poorly fitted or top-dose-only effect, or effect the other way; inactive means flat fitted curve, though single readings scatter. The list shows a part of the results.

Assay: Cell viability qHTS assay in S16 Pmp22-F2sN cells; further: nearly all actives have a fitted effect of over 65% in size
Details: S16 Pmp22-F2sN Schwann cells (luciferase reporters placed in the Pmp22 gene) viability, CellTiter-Glo, 24 h; series mostly up to 57.5 µM; activity change, negative = cytotoxicity: at the top concentration
Method in brief: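 S16 Schwann cells carrying the Pmp22-F2sN reporter, seeded in 1536-well format, were exposed to library compounds for 24 h at 37C. Viability was read as CellTiter-Glo luminescence after 15 min at room temperature.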
On the % scale 0 is the no-effect control and ±100 the full control effect.

SMILES | activity change, negative = cytotoxicity
CCOc1cc2sc(N3CCC(C(=O)Nc4ccc(C)cc4)CC3)nc2cc1Br | inactive: -2.22%
CCOC(=O)c1sc(NC(=O)c2nc3ncccn3n2)c(C(=O)OC)c1C | inactive: -2.39%
CCc1ccc(CSc2nc(-c3ccc(OC)cc3)nc3c2Cc2c(CO)cnc(C)c2O3)cc1 | inactive: 5.7%
CCn1c(=O)c2cc(C(=O)NC3CCCCCC3)sc2c2ccccc21 | inactive: 2.52%
O=c1oc2c(CN3CCOCC3)c(O)ccc2cc1-c1ccc(Cl)cc1 | inactive: -6.52%
Cc1ccc(NC(=O)Cn2ncn3c(cc4ccccc43)c2=O)c(C)c1 | inactive: 7.2%
CCOc1ccc(C2CC(=O)n3nc(-c4ccc(C)cc4)nc3S2)cc1 (centres undefined) | inactive: 0.791%
COc1ccc(CNC(=O)CSc2nc3ccsc3c(=O)n2Cc2ccccc2Cl)cc1 | inactive: 18.5%
CCc1ccc(N2C(=O)CC(c3cc(OC)ccc3OC)C3=C2COC3=O)cc1 (centres undefined) | inactive: 14.5%
Cc1cc2oc(C(=O)Nc3sc4c(c3C(=O)NCC3CCCO3)CCC4)cc(=O)c2cc1C (centres undefined) | inactive: 1.49%
O=C(Nc1ccc2oc(-c3cccnc3)nc2c1)c1ccc(-c2ccc(Cl)cc2)o1 | inactive: 13.3%
CCOc1cc(CNC(=O)c2ccc(C)c(NC(=O)c3nsc4ccccc34)c2)ccc1OC | inactive: 3.67%
COc1ccccc1CNC(=O)Cc1csc2nc(-c3ccc(Cl)cc3)cn12 | inactive: 6.29%
COc1cc(CNc2ccc3[nH]c(=O)[nH]c3c2)ccc1OCc1ccccc1F | inactive: 0.656%
CCN(C(=O)CSc1nc2ccccc2n1CC(=O)Nc1ccccc1C)c1ccccc1 | inactive: 6.52%
COc1ccc(-n2ccn(Cc3ccccc3Cl)c(=O)c2=O)cc1OC | inactive: -4.08%
Cc1cc(C)cc(NC(=O)CCc2nnc3n(CC(C)C)c(=O)c4ccccc4n23)c1 | inactive: 16%
CC(C)N(Cc1ccccc1)C(=O)CN1C(=O)COc2ccc(S(=O)(=O)NC3CCCC3)cc21 | inactive: -7.33%
Cc1ccc(NC(=O)CSc2nc3nccnc3c(=O)n2CCc2c[nH]c3ccccc23)cc1 | inactive: 0.653%
CCOC(=O)c1cc2c(=O)n3ccccc3nc2n(CCCOC)c1=NC(=O)C(C)(C)Oc1ccc(Cl)cc1 | inactive: -22.8%
CN(C)c1ccc(C(CNS(=O)(=O)c2ccc(Br)cc2)N2CCCC2)cc1 (centres undefined) | inactive: 2.47%
O=C(CCNS(=O)(=O)c1ccc2c(c1)CCN2C(=O)C1CC1)N1CCN(c2ccccc2F)CC1 | inactive: -15.1%
CCOc1ccc(S(=O)(=O)N2CCN(c3ccc(Cl)c(Cl)c3)CC2)c2ccccc12 | inactive: -5.71%
COc1ccccc1CNC(=O)CN1C(=O)CSc2ccc(S(=O)(=O)N(C)C)cc21 | inactive: -6.95%

SMILES | activity change, negative = cytotoxicity
CCc1nc2cccnc2n1-c1ccc(CC(=O)Nc2ccc(C)cc2)cc1 | inactive: -15.2%
O=C(Cn1c(=O)n(-c2ccccc2Cl)c(=O)c2sc3ccccc3c21)N1CCCC1 | inactive: 11.2%
CCOc1ccc(CNC(=O)c2cnc3sc(N(CC)CC)nn3c2=O)cc1OC | inactive: -0.809%
CCCn1c(CCC(=O)Nc2cc(Cl)c(OC)cc2OC)nc2cccnc21 | inactive: -3.64%
COc1ccc(NC(=O)CC2C(=O)N(c3ccc(C)cc3)C(=O)N2C2CCCCC2)cc1 (centres undefined) | inactive: 9.89%
O=C(CCSCc1ccccc1Cl)N1CCN(c2cccc(Cl)c2)CC1 | inactive: -1.07%
CCn1nc(-c2ccccc2)c(-c2ccccc2)c(C(=O)Nc2nc(C)c(C(=O)N(C)C)s2)c1=O | inactive: 0.611%
COc1cc(/C=C(\C#N)c2nc3ccccc3[nH]2)ccc1OCc1cccc(C(F)(F)F)c1 | inactive: -3.83%
CCOc1ccccc1NC(=O)c1ccc(F)c(S(=O)(=O)NCc2ccc3c(c2)OCO3)c1 | inactive: -1.12%
CCCCNC(=O)CCCn1c(=O)c2ccccc2n(CC(=O)Nc2ccccc2OCC)c1=O | inactive: -7.72%
COc1ccc(CNc2ncnc3onc(-c4ccc(F)cc4)c23)cc1 | inactive: -18.7%
Cn1c(=O)c2c(ncn2CC(=O)Nc2cccc(Cl)c2Cl)n(C)c1=O | inactive: 3.4%
CN(C(=O)Cn1cc(S(=O)(=O)Cc2ccccc2Cl)c2ccccc21)c1ccccc1 | inactive: -11.4%
Cc1ccc(Cl)cc1N1CCN(S(=O)(=O)c2ccc3c(c2)CC(C)N3C(=O)C2CCC2)CC1 (centres undefined) | inactive: -7.84%
CCOCCCNc1ncnc2onc(C)c12 | inactive: -9.94%
CC(=O)c1ccc(NC(=O)c2sc(-n3nc(C)c(Cc4ccccc4)c3C)nc2C)cc1 | inactive: 28.6%
Cc1cccc(NC(=O)Nc2nnc(N(C)Cc3ccccc3)s2)c1 | inactive: 0.998%
CCN(Cc1ccccc1)Cc1c(O)ccc2c(=O)c(-c3ccc(Cl)cc3Cl)coc12 | inactive: -21.3%
Cc1ccccc1C(=O)NC1(C(F)(F)F)C(=O)Nc2c1c(=O)[nH]c(=O)n2-c1ccc(F)cc1 (centres undefined) | inactive: 2.02%
COc1cccc(Cn2c(CNC(=O)c3cc([N+](=O)[O-])ccc3Cl)nc3cccnc32)c1 | inactive: 1.91%
COc1ccccc1CNC(=O)CCCn1c(=O)c2ccccc2n(CC(=O)Nc2c(C)cc(C)cc2C)c1=O | inactive: -5.11%
COCCCNC(=O)c1ccc2c(c1)N(Cc1ccccc1)C(=O)c1ccccc1S2 | inactive: 16.1%
O=C(CSc1nc(=O)n(CCN2CCOCC2)c2c1CCC2)Nc1ccccc1 | inactive: 24%
CCOC(=O)c1sc(NC(=O)C2c3ccccc3Oc3ccccc32)c(C(=O)OCC)c1C | inactive: 7.08%

SMILES | activity change, negative = cytotoxicity
CCn1cc(C(=O)NCc2ccccc2Cl)c(=O)c2cc(S(=O)(=O)N3CCc4ccccc4C3)ccc21 | inactive: -4.83%
CC(NC(=O)Cn1c(=O)oc2cc(S(=O)(=O)NCc3ccccc3)ccc21)c1ccccc1 (centres undefined) | inactive: 0.0823%
Cc1ccccc1Nc1nc(-c2cccc(Cl)c2)c2c(n1)-c1ccccc1OC2 | inactive: -0.853%
COc1ccc(NC(=O)CSc2nnc(NC(=O)Nc3ccccc3)s2)cc1OC | inactive: -2.4%
CC(=O)c1ccc(NC(=O)COc2ccccc2-c2nc(-c3cccc(C)c3)no2)cc1 | inactive: 10.1%
COC(=O)c1cccnc1-n1c(=O)c2cccnc2n(CC(=O)Nc2ccc(C)cc2C)c1=O | inactive: 3.02%
O=C(Nc1cc(C(F)(F)F)ccc1Cl)c1cc(-c2ccc3c(c2)OCCO3)on1 | inactive: 21.4%
O=C(Nc1ccc(S(=O)(=O)Nc2ncccn2)cc1)c1ccccc1Cl | inactive: -5.22%
Cc1ccc2c(c1)N(C(=O)CCC(=O)NCc1ccccc1Cl)CC(C)O2 (centres undefined) | inactive: -16.6%
COC(=O)c1ccc(CSc2nc3c([nH]c4ccccc43)c(=O)n2-c2ccc(OC)cc2)o1 | inactive: 3.49%
CCOC(=O)c1oc2ccc(S(=O)(=O)n3nc(-c4ccc(Br)cc4)cc3N)cc2c1C | inactive: -3.95%
COc1ccc(CNC(=O)c2c3c(nc4ccccc24)C(=O)N(C2CCCCC2)C3)cc1 | inactive: 0.23%
CC1CCc2c(sc(NC(=O)C3c4ccccc4Oc4ccccc43)c2C(=O)OC(C)C)C1 (centres undefined) | inactive: 8.96%
CCOC(=O)c1scc(-c2ccccc2)c1S(=O)(=O)Nc1cc(Cl)c(OC)cc1OC | inactive: 16.9%
Cc1ccc(S(=O)(=O)NCc2nc(-c3cccc(C)c3)no2)cc1 | inactive: -2.73%
COc1ccc(C2CC(=O)N(Cc3cccc(F)c3)c3ccccc3S2)cc1 (centres undefined) | inactive: -21.5%
COc1ccccc1CNS(=O)(=O)c1ccc2c(c1)NC(=O)CC(=O)N2 | inactive: 2.6%
Cc1ccc(-n2nc(C)c3c(C(=O)NCc4ccccc4)cc(C4CC4)nc32)cc1 | inactive: -1.37%
COc1ccccc1Nc1nn2c(=O)c3ccc(C(=O)N4CCCC(C)C4)cc3nc2s1 (centres undefined) | inactive: 15%
CCCc1nc(SCc2cc(=O)c3ccc(C)c(C)c3[nH]2)n[nH]1 | inactive: -1.04%
COc1ccc(S(=O)(=O)N2CCN(Cc3nc4ccc(C)cc4o3)CC2)cc1Cl | inactive: -20.3%
Cc1ccc(NC(=O)c2ccc(-n3c(C)nnc3C)cc2)cc1F | inactive: -22.3%
CCOC(=O)c1c(-c2ccc(C)cc2)csc1NC(=O)c1nc(SC(C)C)ncc1Cl | inactive: 0.0337%
CCc1ccccc1NC(=O)C1CCCN(C(=O)c2cnn(-c3ccccc3)c2-n2cccc2)C1 (centres undefined) | inactive: -13.2%

SMILES | activity change, negative = cytotoxicity
Cc1ccc(NC(=O)CSc2nc3ccccc3nc2N2CCOCC2)cc1 | inactive: -25.8%
COc1cc2nc(NCc3ccc(C)cc3)n3nc(-c4ccccc4)nc3c2cc1OC | inactive: -8.48%
CCOc1ccccc1NC(=O)c1c(NC(=O)c2cccc(C)c2)sc2c1CCC2 | inactive: 27.2%
CCOc1ccc(N2CC(NC(=O)c3ccc(S(=O)(=O)N4CCCCC4)cc3)CC2=O)cc1 (centres undefined) | inactive: 10.2%
CCc1cc2c(cc3c(=O)n(CC(=O)NC4CCC(C)CC4)ncn32)s1 (centres undefined) | inactive: 1.33%
CCN1C(C(=O)c2ccccc2)=C(OC(=O)c2ccccc2OC)c2ccccc2S1(=O)=O | inactive: -30.3%
COc1ccc(CCNC(=O)CS(=O)Cc2nc(-c3ccccc3F)oc2C)cc1OC (centres undefined) | inactive: 2.87%
COc1cc(NC(=O)CSc2ncccc2C(=O)OC(C)C)cc(OC)c1 | inactive: 4.79%
Cc1cc(C(=O)NCc2ccccc2Cl)c2c(C)nn(-c3ccccc3)c2n1 | inactive: 4.97%
CC(C)CCNC(=O)CN1C(=O)CSc2ccc(S(=O)(=O)N3CCCCC3)cc21 | inactive: 12.5%
Cc1c(C(=O)N2CCN(c3ccccc3)CC2)sc2nc3n(c(=O)c12)CCC3 | inactive: -3.6%
CCc1ccc(S(=O)(=O)c2nnn3c2nc(NC(C)C)c2sccc23)cc1 | inactive: -15%
COc1ccc(CCNC(=O)c2ccc3c(c2)ncn3-c2ccc(C)cc2C)cc1OC | inactive: -8.74%
CCN(CC)CCNC(=O)c1ccc2c(=O)n3nc(Nc4ccccc4OC)sc3nc2c1 | inactive: 10.8%
O=S1(=O)c2ccccc2N(Cc2cccc(Cl)c2)c2ccccc21 | inactive: 9.01%
COc1cccc(CNC(=O)C2CCN(c3nnc(-n4c(C)ccc4C)s3)CC2)c1OC | inactive: -3.43%
CC(=O)c1cc2c(cc1N/C(=N/S(=O)(=O)c1ccc(C)cc1)c1ccc(F)cc1)OCO2 | inactive: -1.61%
O=C(NC1CCCC1)c1ccc(CSc2nc3cccnc3n2Cc2ccc(F)cc2)cc1 | inactive: 2.21%
CCOC(=O)c1ccc2ncc3c(-c4ccccc4)nn(-c4ccc(F)c(Cl)c4)c3c2c1 | inactive: 5.85%
CCOc1ccc(NC(=O)CSc2ncc3c(n2)-c2ccccc2N(Cc2ccccc2C)S3(=O)=O)cc1 | inactive: -23.1%
CC(=O)c1ccc(N2CCN(S(=O)(=O)c3ccc4c(c3)C(C)(C)C(=O)N4)CC2)cc1 | inactive: -1.38%
Oc1ccccc1-c1nc(/C=C/c2ccc(F)cc2)nn1-c1ccccc1 | inactive: 19.2%
